± gives the uncertainty stated by the source. Shown are siRNA guide strands that differ only in the seed, positions 2 to 7.
Legend:
[1] = tested on: 3LL; test: cell viability relative to siNT1 control; higher = less toxic; conditions: concentration: 10 nM; 96 h; Mus musculus;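 note: Luminescence-based viability of cells reverse transfected in 384-well plates with lipid-complexed siRNAs built on a non-toxic 19mer backbone whose passenger strand carries 2′-O-methyl groups at positions 1 and 2, triplicates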
[2] = tested on: HeyA8; test: cell viability relative to lipid-only control; HeyA8 human ovarian and H460 human lung cancer; M565 mouse liver and 3LL mouse lung cancer; siNT1 is a non-toxic control siRNA; higher = less toxic; conditions: concentration: 10 nM; 96 h; Homo sapiens
[3] = tested on: H460; test: as above; conditions: concentration: 10 nM; 96 h; Homo sapiens
[4] = tested on: M565; test: as above; conditions: concentration: 10 nM; 96 h; Mus musculus
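Throughout, for cell viability relative to lipid-only control: reverse lipid transfection in 384-well plates, in triplicate, of duplexes on a non-toxic 19mer backbone with passenger strand 2′-O-methylated at positions 1 and 2, luminescence viability read-out.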

Sequence	cell viability [1] [%]	cell viability [2] [%]	cell viability [3] [%]	cell viability [4] [%]
UGGAUCGACAUGUAAACCAAA	81.8 ± 11	71.2 ± 9.7	71.9 ± 8.5	72.7 ± 13
UGGAGGAACAUGUAAACCAAA	13.6 ± 4.4	3.02 ± 0.15	13.3 ± 3.8	18.4 ± 4.1
UAUCGGAACAUGUAAACCAAA	75.3 ± 6.2	82.3 ± 4.1	87.7 ± 14	59.5 ± 20
UAAUUUAACAUGUAAACCAAA	118 ± 5.8	102 ± 13	94.3 ± 4.2	98 ± 20
UGUGCCUACAUGUAAACCAAA	48.2 ± 8	32.7 ± 4.5	58 ± 12	38.8 ± 5.2
UCUGGUAACAUGUAAACCAAA	98.9 ± 17	90.2 ± 6.9	82.2 ± 4.7	81.8 ± 18
UGAAACUACAUGUAAACCAAA	36.8 ± 7	39.1 ± 2.3	43.2 ± 11	55.6 ± 1.4
UAUGUAUACAUGUAAACCAAA	27 ± 5.8	86.8 ± 4.5	69 ± 5.7	89 ± 12
UCACUAAACAUGUAAACCAAA	98.1 ± 15	88.6 ± 4.5	34.8 ± 2.8	83.4 ± 6.8
UCUGAUAACAUGUAAACCAAA	97 ± 21	89.5 ± 9.8	47.5 ± 5	58.6 ± 8.3
UUCCUGGACAUGUAAACCAAA	15.5 ± 1.6	53.3 ± 14	49 ± 9.7	46.6 ± 7.4
UAUUCCAACAUGUAAACCAAA	99.2 ± 10	91.6 ± 14	74.9 ± 6	124 ± 6.3
UGUGGCAACAUGUAAACCAAA	26.6 ± 13	20 ± 3.1	53.6 ± 7.4	34.1 ± 10
UUCAAGUACAUGUAAACCAAA	45.8 ± 4.9	66.2 ± 3.7	59.8 ± 3.7	40.9 ± 2.9
UCCUAUGACAUGUAAACCAAA	89.5 ± 15	85.8 ± 2.3	73.2 ± 11	80.9 ± 12
UUAUGUAACAUGUAAACCAAA	47.9 ± 7.7	99.6 ± 7.5	76.5 ± 5.4	65.7 ± 3.1
UUGCCGAACAUGUAAACCAAA	73.5 ± 4.2	96.9 ± 4.8	81.4 ± 5.7	54.4 ± 9.2
UCUGCCGACAUGUAAACCAAA	99.4 ± 13	94.3 ± 2.5	73.9 ± 5.3	43.7 ± 6.6
UUUAAACACAUGUAAACCAAA	105 ± 3.7	104 ± 4.4	82 ± 18	92.3 ± 5.6
UGUGAGUACAUGUAAACCAAA	7.44 ± 1.9	14.6 ± 2.3	23.7 ± 2.5	3.62 ± 0.4
UGGUUGAACAUGUAAACCAAA	80.1 ± 0.96	9.76 ± 2.3	53.3 ± 6.9	33.5 ± 2.7
UCAUGUCACAUGUAAACCAAA	34.7 ± 7.1	27.6 ± 7.7	31.9 ± 1.7	13.6 ± 4.6
UUACAUGACAUGUAAACCAAA	108 ± 9.8	83.8 ± 8.4	72 ± 4	106 ± 15
UUCUCACACAUGUAAACCAAA	73.6 ± 9	65.9 ± 2.5	52.1 ± 6.7	33.6 ± 3
UGCUCUUACAUGUAAACCAAA	58 ± 6.9	68.3 ± 5.1	81.5 ± 10	49.3 ± 7.5
UCGUGAAACAUGUAAACCAAA	93.1 ± 13	88.7 ± 2.2	85.1 ± 8	56.5 ± 3
UAGCCGCACAUGUAAACCAAA	7.69 ± 0.92	32.6 ± 0.58	21 ± 0.38	5.33 ± 0.49
UACCUAUACAUGUAAACCAAA	77.4 ± 9.2	58.8 ± 2.2	68.9 ± 9.7	84.8 ± 17
UUUCCACACAUGUAAACCAAA	94.67 ± 0.89	73.9 ± 6.4	69.5 ± 9.2	65.8 ± 8.3

Source: the supplement of paper PMC6206098
